Assay results: a compilation of properties of binary mixtures (doi:10.1021/je300542s)
The densities may have been worked out from excess volumes.

Assay: xn = mol fraction of the nth substance listed
Conditions: 101 kPa

O=C1CCCN1 + CC[n+]1ccn(C)c1.F[B-](F)(F)F
mass density [kg/m3]
Conditions	293.15 K	298.15 K	303.15 K	308.15 K
x1 = 0.0786	1278.8	1275	1271.3	1267.2
x1 = 0.0912	1278	–	1270.4	1266.4
x1 = 0.1278	1275.3	1271.5	1267.8	1263.8
x1 = 0.1711	–	1268.1	–	–
x1 = 0.2294	–	–	1259.5	–
x1 = 0.2686	1263.4	1259.6	1255.8	–
x1 = 0.3292	1257.2	1253.4	1249.6	1245.5
x1 = 0.3684	1252.9	1249	1245.2	1241.1
x1 = 0.4283	1245.5	1241.6	1237.9	1233.7
x1 = 0.4695	1239.9	1236.1	1232.3	1228.2
x1 = 0.5281	–	1227.3	1223.6	1219.4
x1 = 0.5711	1224	1220.3	–	1212.4
x1 = 0.6283	1213.7	1209.9	1206.3	1202.2
x1 = 0.6603	1207.4	1203.6	1200	1196
x1 = 0.7302	1192.2	–	1184.8	–
x1 = 0.7598	–	1181.5	1177.8	–
x1 = 0.8296	1167	1163.3	1159.6	1155.8
x1 = 0.8901	–	1145.4	–	1137.9

CC[n+]1ccn(C)c1.F[B-](F)(F)F + CN1CCCC1=O
mass density [kg/m3]
Conditions	293.15 K	298.15 K	303.15 K	308.15 K
x2 = 0.0696	–	–	1269.5	1265.6
x2 = 0.0871	–	1271.1	1267.7	1263.8
x2 = 0.1273	1270.1	1266.5	–	1259.3
x2 = 0.1676	1265	1261.5	1258.3	–
x2 = 0.2658	1250.8	1247.8	1244.6	1240.9
x2 = 0.2689	1250.4	1247.3	–	1240.4
x2 = 0.3228	1241.5	1238.6	1235.5	1231.8
x2 = 0.3683	1233.3	1230.5	–	1223.7
x2 = 0.4291	1221.4	1218.8	–	–
x2 = 0.4744	1211.7	1209.1	1205.8	1202.1
x2 = 0.5227	1200.6	1198	–	1190.9
x2 = 0.5685	1189.2	1186.5	1183.1	1179.4
x2 = 0.6286	1173	1170.2	1166.7	1162.9
x2 = 0.6703	1160.8	1157.9	–	1150.5
x2 = 0.7291	1142.4	1139.1	1135.5	1131.6
x2 = 0.7711	1128.1	–	1120.9	1116.9
x2 = 0.8188	1110.8	1107.1	–	–
x2 = 0.8887	1083.3	1079	1074.9	1070.6
